Experimental data taken from the supplement of paper PMC12217912.
Some of the results follow. Sequences were assembled here from the parent chain. Inactive controls read about 0.05.

B1: TEV protease; numbered along this chain (parent)
chain: MGESLFKGPRDYNPISSSICHLTNESDGHTTSLYGIGFGPFIITNKHLFRRNNGTLVVQSLHGVFKVKDTTTLQQHLVDGRDMIIIRMPKDFPPFPQKLKFREPQREERICLVTTNFQTKSMSSMVSDTSCTFPSGDGIFWKHWIQTKDGQCGSPLVSTRDGFIVGIHSASNFTNTNNYFTSVPKNFMELLTNQEAQQWVSGWRLNADSVLWGGHKVFMVKPEEPFQPVKEATQL

Variants of: B1
Test: raw area under fraction-flipped curve 0-4 h after induction (AUC4h, not background-subtracted), DNA-recorder readout of cleavage of the substrate (dimensionless); higher = more cleavage of the substrate by the protease variant
Conditions: temperature: 34 °C; time window: 0-4 h after rhamnose induction
Experimental: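 In vivo DNA recorder in E. coli TOP10(DE3) ΔrhaA at 34 °C. Each TEVp single-site mutant (parent TEVp 0) is paired with a single-site variant of the 7-mer TEVs (canonical ENLYFQ|S). The substrate sits between flexible linkers in a Bxb1-sfGFP-TEVs-SsrA fusion, so cleavage stabilises Bxb1 and speeds flipping of a recombination array, read by NGS. The value is the raw area under the fraction-flipped curve over 0-4 h after rhamnose induction (AUC4h), with ≥20 reads per time point. It is not background-subtracted; inactive controls average about 0.047.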
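Note: Bxb1 expression induced with 0.2% (w/v) L-rhamnose at OD600 near 0.5, cultures sampled hourly, flipped fraction per protease–substrate barcode pair counted by paired-end Illumina sequencing.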

Variant	area with substrate ENLYFCS	area with substrate ENLYFDS	area with substrate ENLYFES	area with substrate ENLYFIS	area with substrate ENLYFKS	area with substrate ENLYFMS	area with substrate ENLYFPS	area with substrate ENLYFRS	area with substrate ENLYFSS	area with substrate ENLYFWS	area with substrate ENLYFYS	area with substrate ENLYFVS	area with substrate ENLYFAS	area with substrate ENLYFFS	area with substrate ENLYFGS	area with substrate ENLYFNS	area with substrate ENLYFTS	area with substrate ENLYFLS	area with substrate ENLYFHS
S18Y	0.0539	0.0481	0.0628	0.057	0.067	0.073	0.0466	0.0524	0.0558	0.0651	0.0604								
G35M	0.0331					0.0569						0.0488							
T233S		0.0581	0.0604	0.0497	0.0684	0.0577	0.0527	0.0676	0.0528	0.0592		0.0683	0.0541	0.0668	0.0585	0.0692	0.056		
K230G			0.0541	0.0593	0.0606		0.0606	0.0592	0.0618	0.0622		0.0642	0.0727	0.0694	0.0744	0.093	0.0539	0.0442	
V217H			0.055	0.0503	0.0591	0.0666	0.0635		0.0606	0.0411		0.061	0.0609	0.0682	0.0616				
V217N	0.0526	0.0621	0.0531	0.0451	0.0544	0.071	0.0512		0.0571		0.0356		0.0581	0.068		0.0693	0.0555		
G213S			0.0546	0.0691	0.059	0.0603	0.0544		0.0571				0.0728	0.0621		0.0633	0.0508		0.0469
H29Y	0.0649	0.0634		0.0538		0.0692	0.0748		0.0528			0.0619		0.0587	0.0576	0.0589	0.0596		
H215G		0.0351	0.0676	0.0551	0.0494	0.0535	0.0696	0.0568	0.0647				0.0688	0.0824	0.0986	0.0734	0.0798		0.0612
K221N	0.056	0.0846	0.0698	0.0565	0.021	0.0643	0.0582	0.0545	0.0648	0.0527	0.0606		0.0557	0.0777	0.0606	0.0611	0.0635	0.0715	0.0478
K221Y	0.0508	0.0716	0.0719	0.05		0.062	0.0636	0.0563	0.0591	0.0449	0.0579		0.0522	0.0685		0.0605		0.0671	0.0622
C20A	0.0521	0.0474	0.0594	0.0538	0.0669		0.0594	0.0635		0.0583	0.0574	0.0735		0.059	0.066	0.0664	0.0546		
M219R		0.048	0.0481	0.0584	0.067	0.0626	0.0535	0.0517	0.0597	0.07	0.0619	0.0571	0.0615	0.0674			0.0567	0.054	0.0467
M219D	0.0555	0.0534	0.055	0.0519	0.0506	0.0646	0.0563						0.0656	0.0636	0.053	0.0725	0.0565	0.0612	
Q198Y	0.0463	0.0502	0.0753	0.0576	0.053	0.0627	0.0625		0.0647	0.0483	0.064	0.055	0.0607	0.0401		0.0626	0.0557		
A196N	0.0581	0.053	0.0606	0.0688	0.0787	0.0762	0.062	0.0612		0.0653	0.0492		0.0691	0.0849	0.0545	0.058	0.0535		0.0479
E224M	0.0672			0.0587		0.0773	0.062			0.0615			0.0641	0.0454		0.0722	0.0677		0.0427
E224T		0.0613	0.0656	0.0512		0.055	0.0595	0.0638	0.0474	0.0681		0.0609	0.0546	0.064		0.0598	0.0663	0.0616	0.0641
E224P	0.0629	0.0229		0.0319	0.0599	0.0651	0.0595		0.0672			0.0468	0.0376	0.0496			0.0647		0.0674
G39K	0.0421	0.0354	0.046	0.0415		0.0537	0.049	0.0485		0.0366	0.0341	0.0342		0.0506	0.0299	0.0511	0.0338		0.0354
K7A	0.0607		0.0484	0.196	0.0673		0.0532	0.0766	0.0653	0.0494				0.0627	0.0685	0.0607	0.0579	0.0498	
V229L	0.0503		0.064	0.0568	0.0631	0.0658	0.0455	0.0543	0.1	0.102	0.0529	0.05	0.0508	0.0608		0.0674	0.0859	0.0683	0.0547
V229Y	0.0674	0.046		0.0625	0.063	0.071	0.0485	0.0609		0.0543	0.0646	0.0511	0.0638	0.0768	0.076	0.0633	0.0613		0.0486
L235M	0.0566	0.0636	0.0693	0.0688	0.0627	0.0644	0.0343		0.062	0.0482	0.0672		0.0652	0.07	0.0657	0.0658	0.0553	0.05	0.0551
R204N	0.0558	0.0629	0.0539	0.059	0.0589	0.0562	0.0592	0.0454	0.049	0.0581	0.0562	0.013	0.0601	0.0669			0.0654		0.0659
